Here are results for one compound from US7316989B2 (priority 2001, dated 2008).

The subject of data set [1] is rice (variety: Akitakomachi). Set-up: key: ◯: normal; X: water-repellent. The following applies: in vivo; rice leaves after application of liquid diluted to 10 ppm in terms of cerebroside B. The text has this: Concentrates with respective concentrations provided in the course of the preparation of ethanol extract concentrate A in Example 1, and a solution obtained by further concentrating extract concentrate A were examined for the liposoluble substance content, the cerebroside B content, and the control effect for rice blast. For the concentrations of the individual concentrates, the ethanol extract after the completion of the extraction step was regarded as a one-fold diluted solution, and the ratio of the amount of the liquid after the completion of the extraction to the amount of the liquid after each concentration operation in the concentration/separation step was regarded as the concentration ratio. In this way, 1-, 2-, 5-, 10-, 20-, 30-, and 50-fold diluted solutions were provided for the test. The liposoluble substance content was expressed in terms of an n-hexane extract. Further, for the individual liquids, the spreadability of the testing liquids, state of the liquids upon dilution, the state of the foliar surface as the level of physiological disorder of the liquid applied leaves were compared.
To examine the disease control effect, an evaluation test was carried out by the following method. […]

The test system of data set [2] is melon dead arm fungus (Fusarium oxysporum f. sp. melonis race 2). Description: Melon Fusarium wilt control test. Conditions: melon (Ams) submerged 10 hr, 20 ppm in terms of cerebroside B; disease development of roots 21 days after inoculation. The source says:
Melon plants (variety: Ams) (third- or fourth-leaf (true leaf) developed) were submerged in each test liquid for 10 hr. Thereafter, conidia of melon dead arm fungus (Fusarium oxysporum f. sp. melonis race 2) cultured in a potato-dextrose medium were inoculated by drenching.
This effect is considered attributable to the fact that the penetration transfer of the cerebroside as the active ingredient into the plant body can be enhanced by the spreading effect of the liposoluble substance contained in the disease resistance-inducing composition of the present invention upon application.

`CCCCCCCCCCCCCC[C@@H](O)C(=O)N[C@@H](CO[C@@H]1O[C@H](CO)[C@@H](O)[C@H](O)[C@H]1O)[C@H](O)/C=C/CC/C=C(\C)CCCCCCCCC` [cerebroside B, (4E,8E)-N-D-2′-hydroxypalmitoyl-1-O-β-D-glucopyranosyl-9-methyl-4,8-sphingadienine]: in data set [1], the “State of foliar surface” value is “◯”. The compound also registered a Protective value in data set [2] of 52.
